# Some of the results follow.
# T1: UNK ZnF1-3 (human, UniProt Q9C0B0 31-174)
# T1 sequence: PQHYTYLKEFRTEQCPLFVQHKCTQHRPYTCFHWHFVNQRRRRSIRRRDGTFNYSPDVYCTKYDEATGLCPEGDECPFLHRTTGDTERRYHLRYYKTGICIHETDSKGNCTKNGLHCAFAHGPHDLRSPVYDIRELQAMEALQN
# B1: chr1:34870196:34870197:-_ENSMUSG00000037503_ENSMUST00000047534|mus_hu|FALSE|FALSE (ssRNA)
# RNA: GGGAGUUCUACAGUCCGACGAUCAUCUGAGCUCAUCUCAUCAGAUUGCAUAAAAAAUUAAAAUAGUAUCAAUUGACACCUAACUGAACUGGCUCAGGAUGGAAAUUCCAUUCCUUGGCAUGGAUACGUAAGUUCAAUGCAGAGCAACAGAGGAUUGAGCAUCA
# B2: 100444871_100444991_3705_CDS_ENSG00000111647_ENST00000279907|human|control|control (ssRNA)
# RNA: GGGAGUUCUACAGUCCGACGAUCUUCCUGAGCACCCUCUGAAUUUGUACUGAUGGCAUCUGGAGAAGUUUCACCAUAAUUCUGUAGGUUUGCACCAGCAUUCACACUUUCUGCUGUGCCCCUGUAAUUUGUAGUUGAGUUCUUCAACAGAGGAUUGAGCAUCA
# B3: 75276373_75276493_3767_CDS_ENSG00000166348_ENST00000408019|human|control|control (ssRNA)
# RNA: GGGAGUUCUACAGUCCGACGAUCACAGAACCUUGUGAUAUUCACCCAGGAAUCCAAAGGCAAGGAAGUCCCCAAGUCAGUACUGCUGCCCAGAUCCUUAGACCUAACAUCUCUCACUUGGGACAGCUUCUCUUGGUAUAUGUCCAACAGAGGAUUGAGCAUCA
# B4: chr2:34631547:34631548:+_ENSMUSG00000026864_ENSMUST00000100171|mus_mus|motif|central (ssRNA)
# RNA: GGGAGUUCUACAGUCCGACGAUCUGGGGGAGGGCCUCCACUUCCAUAGAGUUUGCUGAUAAUUGGCUGAACAAUUUCUUCGGGUUCCUUCUUUUUGGCUUUAAAGUCUUCAAUGUCCGCAUCCUGGUGGCUUUCCAGCCAUUCCAACAGAGGAUUGAGCAUCA
# B5: chr2:48026839:48026840:+_ENSG00000116062_ENST00000540021|hu_hu|hu_hu_hu_mus_False|88_88 (ssRNA)
# RNA: GGGAGUUCUACAGUCCGACGAUCAUAGUGAGCCACUAGCGUCCUAAAUCUCGAACAGUGGCGGUCAUCCGAAAACUGGCCGAUGAAAAACUUGCCCAGUGAAGUGUCCACAAAGCAAACACCAUACACACGAGUGUGACCAGACAACAGAGGAUUGAGCAUCA
# B6: 1729879_1729999_916_CDS_ENSG00000013810_ENST00000313288|human|control|control (ssRNA)
# RNA: GGGAGUUCUACAGUCCGACGAUCGGUCUGAGUGCCAUCUGCUGGCACGGGGGUGCCCACACCCGCAGGGCAGCCCAGGGCUUCGCCAGGCAGACCCUGCAGGGGUGCUCCUCCGCAGGCUUCCUUAGGGAUUGCACCAGGAGGCAACAGAGGAUUGAGCAUCA
# Molecular target: T1, UNK ZnF1-3
# Assay: nsRBNS (natural sequence RNA bind-n-seq); RBNS binding buffer (assumed for nsRBNS): 25 mM Tris pH 7.5, 150 mM KCl, 3 mM MgCl2, 0.01% Triton X-100, 500 ug/ml BSA, 20 U/ml SUPERase-In, 4 C; UNK is unkempt and MSI1 is Musashi-1; names of the RNAs are library labels; protein concentration not given here; high values mean tight binding
row,Binder,binding signal [enrichment R]
1,B1,1.69
2,B2,0.864
3,B3,0.563
4,B4,0.354
5,B5,1.08
6,B6,0.787

# Source: publication PMC12136788
